# From publication PMC4336329 (PLoS ONE, 2015)
# Screen size: about 310,000 compounds; about 14,000 (4.5%) showed an effect of 50% or more. Effects have a minus sign here. The list shows a part of the results.
# Target: human ether-à-go-go-related gene (hERG) potassium channel (human, UniProt Q12809)
# Experiment: primary screen, population patch clamp on CHO cells stably expressing hERG
# 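Further: peak tail current of the secondary pulse compared with the same well before compound.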
# Chain of human ether-à-go-go-related gene (hERG) potassium channel (Q12809 whole entry, looked up): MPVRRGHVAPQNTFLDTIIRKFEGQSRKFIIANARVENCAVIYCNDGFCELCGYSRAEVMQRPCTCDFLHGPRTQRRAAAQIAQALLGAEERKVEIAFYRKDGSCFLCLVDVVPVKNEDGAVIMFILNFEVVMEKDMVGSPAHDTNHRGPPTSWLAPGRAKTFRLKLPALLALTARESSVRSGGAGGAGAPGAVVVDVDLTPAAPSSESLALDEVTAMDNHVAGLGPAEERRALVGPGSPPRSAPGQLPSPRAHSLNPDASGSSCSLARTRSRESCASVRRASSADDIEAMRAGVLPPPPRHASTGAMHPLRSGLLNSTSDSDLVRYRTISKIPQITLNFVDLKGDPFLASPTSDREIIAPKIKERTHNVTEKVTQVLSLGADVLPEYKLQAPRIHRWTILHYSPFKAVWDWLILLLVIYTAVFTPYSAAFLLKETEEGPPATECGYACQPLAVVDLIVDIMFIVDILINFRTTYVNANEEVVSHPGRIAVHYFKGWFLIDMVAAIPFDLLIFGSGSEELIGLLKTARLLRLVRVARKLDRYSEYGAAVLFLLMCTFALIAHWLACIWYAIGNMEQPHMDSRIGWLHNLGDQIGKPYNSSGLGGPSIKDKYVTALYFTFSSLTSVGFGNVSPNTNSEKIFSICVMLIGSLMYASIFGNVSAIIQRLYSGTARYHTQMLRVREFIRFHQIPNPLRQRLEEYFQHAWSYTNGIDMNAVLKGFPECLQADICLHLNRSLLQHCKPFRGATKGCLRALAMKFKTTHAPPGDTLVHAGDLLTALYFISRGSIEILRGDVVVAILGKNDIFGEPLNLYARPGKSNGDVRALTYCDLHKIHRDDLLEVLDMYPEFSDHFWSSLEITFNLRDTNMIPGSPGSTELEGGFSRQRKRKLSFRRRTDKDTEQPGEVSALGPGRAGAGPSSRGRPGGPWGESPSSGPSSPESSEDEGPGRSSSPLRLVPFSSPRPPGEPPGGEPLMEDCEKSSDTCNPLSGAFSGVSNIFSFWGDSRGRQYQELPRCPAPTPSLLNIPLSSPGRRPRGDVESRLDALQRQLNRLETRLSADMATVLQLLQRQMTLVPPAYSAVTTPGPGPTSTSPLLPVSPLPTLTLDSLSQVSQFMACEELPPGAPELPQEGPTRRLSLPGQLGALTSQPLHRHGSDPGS
row,Compound,"hERG current change (%, negative = inhibition) at 10uM"
1,Cc1ccc(C(=O)NCc2ccco2)cc1S(=O)(=O)Nc1cccc(Cl)c1,-38.3%
2,CCNC(=O)NC(=O)C(C)OC(=O)c1oc2ccc(OC)cc2c1C (stereo not shown),11.8%
3,CC1=C(C)CC(C(=O)Nc2nc(-c3ccc(F)cc3)c(C)s2)C(C(=O)O)C1 (stereo not shown),19.1%
4,O=C(NCCc1ccccc1)[C@@H]1CC=C[C@@H]2CCN(C3CCCCC3)C(=O)[C@@H]21,10.5%
5,O=C(Nc1ccccc1)/C(=C/c1ccc2c(c1)OCO2)NC(=O)c1ccco1,7.14%
6,CS(=O)(=O)c1ccc(Cl)c(NC(=O)COC(=O)/C=C/c2cnc3ccccc3n2)c1,14.6%
7,O=C(CSc1nnc(NC2CCCCC2)s1)N1CCOCC1,2.99%
8,COc1ccc(-c2nn(C)c3sc(C(=O)N4CCOCC4)cc23)cc1OC,-2.95%
9,COc1ccc(Cl)cc1NC(=O)C1CCN(C(=O)Nc2ccccc2)CC1,-4.23%
10,C=CCn1c(SCC(=O)N2c3ccccc3Sc3ccccc32)nnc1-c1ccco1,-10.3%
11,O=S(=O)(NCC(c1cccnc1)N1CCc2ccccc2C1)c1ccccc1 (stereo not shown),10.3%
12,Cc1ccc(CNc2nc(-c3cccs3)nc3ccccc23)cc1,12.1%
13,O=C(NCCO)/C(=C\c1ccc([N+](=O)[O-])o1)NC(=O)c1ccccc1,1.55%
14,COc1ccc(-c2cc(-c3ccccc3)c(C#N)c(S(C)=O)n2)cc1 (stereo not shown),-6.13%
15,Cc1cc(OC(C)C(=O)NC(Cc2c[nH]c3ccc(O)cc23)C(=O)O)c2c(C)c(C)c(=O)oc2c1 (stereo not shown),-16.2%
16,O=C(c1cc(Cl)ccc1OCc1ccccc1)N1CCOCC1,-8.81%
17,CCCCCn1c(N)c(-c2nc3ccccc3o2)c2c([N+](=O)[O-])nn(C)c(=O)c21,22.8%
18,Cc1cc(C(F)F)n2nc(C(=O)Nc3ccccc3F)nc2n1,14.5%
19,Cc1ccc(CNS(=O)(=O)c2cn(C)cn2)cc1,-33.8%
20,CCOC(=O)c1cc(C(=O)OCC)cc(-n2c(C)cc(C(=O)CN3CCOCC3)c2C)c1,-23.4%
21,C=CCN1C(=O)C2(OCCCO2)c2cc(C)ccc21,10.5%
22,CN1CCN(CC#CCC2(O)c3ccccc3-c3ccccc32)CC1,29.2%
23,O=C(NNC(=S)Nc1ccc(Cl)c(Cl)c1)c1ccccn1,63.6%
24,CCC(=O)c1cn(CC(=O)Nc2ccc(OC)cc2)c2ccccc12,-0.605%
25,Cc1[nH]c2ccccc2c1C(=O)COC(=O)CCS(=O)(=O)c1ccccc1Cl,-14.4%
26,Cc1ccc(SCC(=O)NNC(=O)c2ccccc2)cc1C,19.8%
27,COc1ccc(NC(=O)CSc2nc3[nH]c(=O)cc(O)c3s2)c(OC)c1,7.66%
28,CC(C)(C)NC(=O)CN(Cc1cccs1)C(=O)C1COc2ccccc2O1 (stereo not shown),-14.7%

row,Compound,"hERG current change (%, negative = inhibition) at 10uM"
1,Cc1cc(C)n2nc(-c3cnn(C)c3C(F)(F)F)c(Cl)c2n1,-11.2%
2,COc1ccc(C(=O)C[n+]2ccccc2C)cc1.[Br-],13.3%
3,O=C(CN1C(=O)NC2(CCCCC2)C1=O)Nc1cccc(S(=O)(=O)N2CCOCC2)c1,4.29%
4,COC(=O)c1cn(NC(=O)C2CCC(C)CC2)c(=O)c2ccccc12 (stereo not shown),16.8%
5,C=CCNS(=O)(=O)c1cc2c3c(c1)CCN3C(=O)CC2,18.1%
6,Cc1ccc(N2CCN(C(=O)CNS(=O)(=O)c3ccc(Br)s3)CC2C)cc1 (stereo not shown),-15.8%
7,CN1c2ccccc2N(C)C1c1ccc2c(c1)OCO2,14.2%
8,O=C(O)CC1(CC(=O)NCc2ccc(C(F)(F)F)cc2)CCCCC1,5.6%
9,CCOc1cc(/C=C(\C#N)C(=O)NCC2CCCO2)ccc1O (stereo not shown),-3.03%
10,CCCN(CCC)C(=S)Nc1cc(C(=O)OC)ccc1C(=O)OC,-38.2%
11,CCN(CC(=O)Nc1c(F)cccc1F)C(=O)c1cnc(C)cn1,3.9%
12,COCCNC(=O)c1ccc(NS(=O)(=O)c2ccc3[nH]c(=O)[nH]c3c2)cc1,23.9%
13,CCC(C)(C(=O)NC1CCCCC1)N(C(=O)c1cnccn1)c1c(C)n(C)n(-c2ccccc2)c1=O (stereo not shown),-4.76%
14,Cc1ccc(C(=O)NC2CCN(S(=O)(=O)c3ccccc3)CC2)cc1,13.1%
15,COc1ccccc1CN1C[C@@H]2C[C@@H](c3cccc(C)n3)N3CCC[C@@]23C1=O,-4.91%
16,O=C(COc1ccc(F)cc1)Nc1c(C(=O)N2CCC(N3CCCCC3)CC2)oc2ccccc12,-81.1%
17,COc1ccccc1-c1nnc2sc(COc3ccc(Cl)cc3Cl)nn12,-11.6%
18,CCCCn1c(O)c(C(C)=NCCCN(C)C)c(=O)[nH]c1=O,3.15%
19,O=c1c(-c2ccc(Br)cc2)[n+]([O-])c2ccccc2n1OCc1ccccn1,2.87%
20,CCOc1ccc(N(CC(=O)NC2CC2)S(=O)(=O)c2ccc(C)cc2)cc1,27.4%
21,O=C(Cn1c2ccccc2c2nc3n(c(=O)c21)CCCS3)Nc1ccccc1,1.09%
22,COc1ccc(OCc2cc(C(=O)NCc3cccc(C)n3)no2)c(Cl)c1,-11.9%
23,CCN(C(=O)c1cc2cccc(OC)c2oc1=O)C1CCCCC1,-9.14%
24,COc1cc(C(=O)OCC(=O)NC2CCCCCC2)ccc1OCC(C)C,17.3%
25,CCN(CC(=O)Nc1cccc(OC)c1)C(=O)c1ccncc1,9.73%
26,COc1ccc(OCCSc2nnc(-c3cccnc3)n2N)cc1,12.5%
27,CCOc1ccc(S(=O)(=O)N2CCCC(C(=O)NC3CC3)C2)cc1Cl (stereo not shown),1.72%
